Reference: the supplement of paper PMC12217912
The other results are listed elsewhere or left out. The full chains were built here from the parent and the listed change. Inactive controls read about 0.05.

B1: TEV protease; numbered along this chain (parent)
chain: MGESLFKGPRDYNPISSSICHLTNESDGHTTSLYGIGFGPFIITNKHLFRRNNGTLVVQSLHGVFKVKDTTTLQQHLVDGRDMIIIRMPKDFPPFPQKLKFREPQREERICLVTTNFQTKSMSSMVSDTSCTFPSGDGIFWKHWIQTKDGQCGSPLVSTRDGFIVGIHSASNFTNTNNYFTSVPKNFMELLTNQEAQQWVSGWRLNADSVLWGGHKVFMVKPEEPFQPVKEATQL

Variants of: B1
Assay: raw area under fraction-flipped curve 0-4 h after induction (AUC4h, not background-subtracted), DNA-recorder readout of cleavage of the substrate (dimensionless); higher = more cleavage of the substrate by the protease variant
Settings: temperature: 34 °C; time window: 0-4 h after rhamnose induction
Experimental: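 In vivo DNA recorder in E. coli TOP10(DE3) ΔrhaA at 34 °C. Each TEVp single-site mutant (parent TEVp 0) is paired with a single-site variant of the 7-mer TEVs (canonical ENLYFQ|S). The substrate sits between flexible linkers in a Bxb1-sfGFP-TEVs-SsrA fusion, so cleavage stabilises Bxb1 and speeds flipping of a recombination array, read by NGS. The value is the raw area under the fraction-flipped curve over 0-4 h after rhamnose induction (AUC4h), with ≥20 reads per time point. It is not background-subtracted; inactive controls average about 0.047.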
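Further: Bxb1 expression induced with 0.2% (w/v) L-rhamnose at OD600 near 0.5, cultures sampled hourly, flipped fraction per protease–substrate barcode pair counted by paired-end Illumina sequencing.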

Variant	area with substrate ECLYFQS	area with substrate EDLYFQS	area with substrate EELYFQS	area with substrate EHLYFQS	area with substrate EILYFQS	area with substrate EMLYFQS	area with substrate EPLYFQS	area with substrate EQLYFQS	area with substrate ERLYFQS	area with substrate ESLYFQS	area with substrate EVLYFQS	area with substrate EYLYFQS	area with substrate EFLYFQS	area with substrate EKLYFQS	area with substrate ELLYFQS	area with substrate EWLYFQS	area with substrate EALYFQS	area with substrate ETLYFQS	area with substrate EGLYFQS
F95G	0.104	0.0887	0.0689	0.0545	0.0627	0.0771	0.073	0.0659	0.0794	0.0692	0.0565	0.0838							
F95V	0.0813	0.0868	0.0829	0.0921	0.0753	0.0913		0.0855		0.104	0.0757		0.0845	0.0854	0.068	0.0775			
Q74F	0.0873		0.113	0.0899	0.0764	0.133					0.0896			0.106		0.0863			
K66V	0.11	0.133			0.0987		0.143			0.188	0.145		0.113	0.104	0.12				
K230T	0.111	0.121			0.0918	0.12		0.0831	0.0971	0.0909	0.0802				0.0726	0.0668	0.136		
K230W	0.091		0.131	0.0873	0.0812	0.135		0.0845	0.0883	0.131	0.1	0.0896			0.0851		0.0704		
K230L	0.101	0.0911			0.0597	0.102				0.0931	0.0818	0.101		0.0743			0.104	0.11	
N52H	0.0664		0.0896	0.0875	0.0672	0.0714	0.0578				0.0776			0.0704				0.0726	0.0702
Q227T		0.109		0.0975	0.102	0.12	0.127		0.109	0.122		0.111		0.115	0.0721	0.0983	0.131		
F92A	0.0965	0.143	0.102		0.0908	0.101		0.118		0.0676				0.0584	0.0735			0.0902	0.0786
F218L	0.118	0.131	0.125	0.114	0.103	0.151					0.108	0.0763		0.0859	0.0931		0.101		0.0755
G8V	0.103					0.0991	0.129		0.0795							0.0726			
N53I	0.0822			0.0737		0.0726		0.0874	0.076	0.0667	0.0631	0.0755	0.0747	0.0909	0.0718				0.0667
N53T	0.0658		0.0882			0.0939	0.104		0.085	0.0843	0.0716	0.0801			0.0601	0.081		0.099	0.0739
R81L	0.088	0.129		0.0817	0.1	0.0843	0.16		0.119	0.0841				0.0943	0.0828				
K46H	0.0491	0.0654	0.0586	0.0711	0.055	0.103	0.0576	0.0535	0.0669	0.0647	0.0562		0.0109	0.0522		0.0567			
L61D	0.118	0.139	0.0593	0.0921	0.136	0.0972	0.107	0.139	0.116	0.104	0.0892			0.126		0.0865		0.112	
S60Q	0.0498	0.0955	0.128	0.106		0.0917	0.109		0.0467	0.0914	0.0735			0.084		0.0484			
P222Q	0.126	0.133	0.11	0.109	0.0976	0.0994		0.107	0.0916	0.107	0.0987			0.108		0.0967	0.12	0.107	
G37N	0.0765				0.069	0.0568			0.0601	0.0727	0.0595				0.0631			0.0807	0.0739
G37K	0.0487		0.068	0.0718	0.0495		0.061	0.0579	0.066	0.0495	0.0576		0.0568		0.0311				0.0593
S17R	0.107	0.147		0.0946	0.113	0.124		0.131	0.119	0.102	0.126		0.124		0.119	0.104			
S17K	0.114	0.106	0.111	0.138	0.105	0.114	0.0983	0.136	0.11	0.106	0.0952		0.0973	0.146		0.127			0.088
S17V	0.105	0.0933		0.0798	0.0757	0.102	0.128	0.116	0.0894	0.104	0.0929	0.1	0.114	0.13	0.0887	0.107		0.117	
I43T	0.0651	0.0937	0.0967	0.0791	0.0681	0.087		0.0943	0.0844	0.0673	0.0796	0.081		0.0731		0.0819			0.0657
I43P	0.0415	0.0428	0.0562	0.0535	0.0351	0.045	0.0495	0.0396	0.0531	0.0554	0.0362	0.05	0.0403	0.0457	0.0438			0.0453	
H47V	0.0583		0.0536	0.0567	0.0528	0.0537		0.0628	0.0594	0.0591	0.0559		0.0558	0.0558	0.0528	0.0415		0.0633	0.0653
T44C	0.1		0.0986		0.0828	0.102	0.123	0.108	0.0961	0.0901	0.0848	0.0893	0.0591	0.0919	0.1	0.0523		0.0989	
